Read counts are not given, so values of variants with three or more changes are uncertain.
B1: OR4K15 (parent)
chain: GUUAACGGUCAUAGGCCAUGGAAACUAGGAGCACCAUUUCGCUGCCAGUGAAGAAAUGAACAAAGAAAAUCUGGGCCAGGCAGGCAUCAAAAGAAAUAGUCUUGCGCUCAACCAGAAAGUCUGUAAUCAUUUUAAGGGUA

Variants of: B1
Assay: self-cleavage, relative activity (ratio to wild type); higher = more cleavage; in vitro, sequencing; the parent is a self-cleaving ribozyme
A5G U19G U37C A110G gave a self-cleavage of 0.09.
Variant A5G A67U A78G has a self-cleavage of 0.64.
Variant A5G U9C A11G A23G A62U A78G has a self-cleavage of 0.42.
Variant A5U A11U G44A A68U A92G A126G has a self-cleavage of 1.04.
In the case of A5U A64C G115A A118U, the self-cleavage is reported as 0.15.
A5G U19A G73A U130C showed a self-cleavage of 0.06.
A5G A66G A67G showed a self-cleavage of 1.97.
For G7U A24G G80A U120C, the self-cleavage was 0.21.
In the case of A5G C34A A116G, the self-cleavage is reported as 0.2.
Variant G7A U97C A98U has a self-cleavage of 0.48.
With A5G U43A A59G A94G the self-cleavage was 1.08.
C6U G14A U19A A55G G73A A82U A110G showed a self-cleavage of 0.03.
G7A G93A U103C U122A U131C showed a self-cleavage of 0.94.
In the case of C6A A126G A135U, the self-cleavage is reported as 1.09.
A5G G106A A114G gave a self-cleavage of 0.02.
Work on A5G U9C A22G A27G A67G A117G A118G yielded a self-cleavage of 0.44.
For A5G U38C A63G A94G A126G, the self-cleavage was 1.17.
Work on C6U A54G A60G yielded a self-cleavage of 1.08.
In the case of A5U A63G A96G, the self-cleavage is reported as 1.42.
Work on G7U A11G U39C A110U yielded a self-cleavage of 0.77.
In the case of G7A U57A A64G U103C, the self-cleavage is reported as 0.79.
A5G A30G C40A A60C showed a self-cleavage of 1.12.
G7A G31U U39C A114U gave a self-cleavage of 0.19.
A5U A11G A47G U49C A56G A95G gave a self-cleavage of 0.75.
A5U A11G A55G A98U U108C A114U gave a self-cleavage of 0.34.
G7A U19A A23G A86G showed a self-cleavage of 1.03.
A5G G7A U72C U87G showed a self-cleavage of 0.24.
A5G U9A U12C A56G G65U G115C gave a self-cleavage of 0.04.
For A5G U38C A82G A86G, the self-cleavage was 0.17.
C6A A67G A96G U102C showed a self-cleavage of 1.48.
G7A A24G A78U A95G A110G gave a self-cleavage of 0.09.
A5G C76A U130C showed a self-cleavage of 0.25.
With A5G U38A A51U A96G U130C the self-cleavage was 0.39.
C6A U37C U38C A54U A117G gave a self-cleavage of 1.66.
In the case of C6U U43A U120G, the self-cleavage is reported as 0.83.
A5U C35U A67G showed a self-cleavage of 0.68.
For A5G U87C U127C, the self-cleavage was 0.79.
G7A A13G U39A C88U A94G gave a self-cleavage of 1.44.
A5G A67G U122C showed a self-cleavage of 1.3.
Work on A5G U9C A78G A89G A94C U127C yielded a self-cleavage of 0.34.
A5G A30G G84A A91U U120C gave a self-cleavage of 1.68.
Work on A5G A54G A60U A92C yielded a self-cleavage of 0.9.
Variant G7A U9C U38C U49G U87C U131C has a self-cleavage of 0.7.
With A5G U37C U70C the self-cleavage was 0.28.
Variant G7U A52G A55G A60G A114G U127A has a self-cleavage of 0.2.
With G7A A22G A63G U108C the self-cleavage was 0.04.
G7A A51G U70A A129G showed a self-cleavage of 0.3.
In the case of A5G A52G U72A, the self-cleavage is reported as 0.2.
Variant G7A U19A U49C has a self-cleavage of 1.15.
For C6A U19C U124A, the self-cleavage was 0.57.
In the case of A5G U49A A90C A125G, the self-cleavage is reported as 0.44.
Work on A5G A66G A135C yielded a self-cleavage of 1.32.
In the case of A5G A30U U127C, the self-cleavage is reported as 1.12.
A5G C112A A118G showed a self-cleavage of 0.02.
Work on A5G A92G A129U yielded a self-cleavage of 0.57.
A5G G7A A66G C77U A114G showed a self-cleavage of 1.53.
G7A A11C A62G U70C A82U G106A gave a self-cleavage of 0.01.
A5G U43A A69U gave a self-cleavage of 1.41.
A5U U19A U103G U130C showed a self-cleavage of 0.02.
In the case of A5G A56G A62C, the self-cleavage is reported as 0.97.
With G7U A23G A30U A59C A66G U72A U87A the self-cleavage was 0.56.
In the case of C6U A52U A62U A95G U102C, the self-cleavage is reported as 1.24.
In the case of A5G U37C U38C U122C, the self-cleavage is reported as 0.74.
Variant A5U U37C U49G A96C has a self-cleavage of 1.19.
For C6G A36U A67G A86G A96G, the self-cleavage was 0.92.
Work on A5U U108C A125G U132C yielded a self-cleavage of 0.01.
In the case of A5G A54G C109U A129G, the self-cleavage is reported as 0.61.
C6U U19C A27U A114G A117G A126G U139C gave a self-cleavage of 0.66.
A5U A52U A68G showed a self-cleavage of 1.07.
A5G A33G G58A U122C gave a self-cleavage of 1.46.
In the case of G7C A90U A94U U124C, the self-cleavage is reported as 0.39.
G7U U12A A18G C35A U122C gave a self-cleavage of 1.5.
Variant A5G U39C A66G A110U has a self-cleavage of 1.33.
Work on G7A A56G A116U yielded a self-cleavage of 0.05.
For A5G A30G U57C, the self-cleavage was 0.48.
For G7A A18U U120C U124C, the self-cleavage was 0.22.
A5U U102A A111G A116G gave a self-cleavage of 0.03.
Variant A5U G104A A135G has a self-cleavage of 0.15.
A5G A78U A111G gave a self-cleavage of 0.06.
Variant G7A A51G U57A has a self-cleavage of 0.93.
Variant A5G A30G U37C A69G has a self-cleavage of 0.34.
Work on A5G A111U A126U yielded a self-cleavage of 0.06.
G7A U26C U43C A90G C101U showed a self-cleavage of 0.08.
In the case of A5U U43A U87C, the self-cleavage is reported as 1.45.
Work on A5U A33U U102C yielded a self-cleavage of 1.74.
Work on A5U A18G U49C A110G yielded a self-cleavage of 0.03.
With G7A A69G A92G the self-cleavage was 2.49.
With G7A A22U A89G the self-cleavage was 0.6.
For A5U U70C A110C C121U, the self-cleavage was 0.44.
For G7A U37C A94G U97C U102C U108C, the self-cleavage was 0.01.
G7A U37C A91G A117G U130C gave a self-cleavage of 0.89.
Work on A5U A24G C46U A89G A111C yielded a self-cleavage of 0.04.
In the case of A5G A55G U72C G75C, the self-cleavage is reported as 0.27.
A5G U9C U43G A55G U122C gave a self-cleavage of 0.77.
With A5G A47G U108C the self-cleavage was 0.02.
With A5U A33C U122C A140G the self-cleavage was 1.88.
With C6U A59G A67G U130C the self-cleavage was 1.34.
G7U A30G A114G showed a self-cleavage of 0.77.
A5G U37C U87C showed a self-cleavage of 1.01.
Work on A5G A33U A51G A92G yielded a self-cleavage of 1.4.
With A5G A64G U87C A118G U122A the self-cleavage was 1.38.
Variant A5G U12A U130C has a self-cleavage of 0.44.
For A5G A91U U108C, the self-cleavage was 0.03.
For G7U A62U U127A, the self-cleavage was 1.63.
In the case of G7A A54G A67G U72C, the self-cleavage is reported as 0.22.
For A5U U57C U122G, the self-cleavage was 2.15.
Work on A5G U12A A69G G84A U127A yielded a self-cleavage of 1.12.
Variant A5G G73C U133C has a self-cleavage of 0.43.
A5G A68G C88A showed a self-cleavage of 0.91.
In the case of C6U G74C G75A, the self-cleavage is reported as 0.26.
With G7A A11G A24G A98U A111G the self-cleavage was 0.04.
In the case of C6U A67G A92U A117G U122C, the self-cleavage is reported as 1.25.
A5G U49C A126G showed a self-cleavage of 1.21.
Work on A5G C16U A129G yielded a self-cleavage of 1.75.
C6A A67G U70C A78G gave a self-cleavage of 0.15.
G7A G20A C35A gave a self-cleavage of 2.06.
Work on A5G U37C A54G yielded a self-cleavage of 0.89.
In the case of A5G G44A U122C, the self-cleavage is reported as 0.76.
For A5G A36G G83A A89U, the self-cleavage was 1.05.
A5G U38C A118G U130C gave a self-cleavage of 0.59.
A5G U43C A62G A86G gave a self-cleavage of 0.57.
With A5G G73U A96G A116U the self-cleavage was 0.1.
Work on A5G A52U A86U U130C U131C yielded a self-cleavage of 0.81.
A5G A59G A60G A140G gave a self-cleavage of 1.21.
In the case of C6U A11G A67G U72C G75C A86G U97C, the self-cleavage is reported as 0.05.
With G7A A92G C105U A140U the self-cleavage was 0.09.
A5G A59G U72G A96U A118G gave a self-cleavage of 0.24.
In the case of A5G A47U U102C, the self-cleavage is reported as 1.21.
Work on A5G A54G A94G yielded a self-cleavage of 0.5.
For A5G A91G A92G, the self-cleavage was 0.96.
Work on A5G U38C A56G A89G A111G yielded a self-cleavage of 0.15.
With A5U A52G A91U the self-cleavage was 1.6.
Variant A5U A52G A98G U102C has a self-cleavage of 1.52.
A5G A55U U132C showed a self-cleavage of 1.76.
For A5G U103C U131C, the self-cleavage was 0.39.
Work on C6A A47G A86G yielded a self-cleavage of 0.37.
A5G A59G A114G A129G gave a self-cleavage of 0.29.
Work on A5G A89G U133C yielded a self-cleavage of 1.11.
A5G U102C A118G gave a self-cleavage of 1.39.
For A5G U38C A66G, the self-cleavage was 1.54.
In the case of A5G U87C A114G, the self-cleavage is reported as 0.17.
With A5G A62G A92G the self-cleavage was 0.53.
A5G U9C U37C G84A A118G gave a self-cleavage of 1.14.
For A5G A95G A111G, the self-cleavage was 0.16.
A5G G7U A86G gave a self-cleavage of 0.94.
For A5G A27U U108C A126G, the self-cleavage was 0.03.
A5G A91G U108C U132C gave a self-cleavage of 0.03.
Variant G7A A56G U108C U139C has a self-cleavage of 0.01.
Variant A5G U12C A23G A52G A66G U87C has a self-cleavage of 1.24.
A5G U9C A18G showed a self-cleavage of 0.91.
With A5G A55G A59G A92G A94G the self-cleavage was 1.67.
A5U U49C A89G showed a self-cleavage of 1.02.
A5G A55G A63G A78C U100C gave a self-cleavage of 0.71.
Variant C6U A13U A66G A82G has a self-cleavage of 0.23.
For C6U U39C U132C, the self-cleavage was 1.55.
In the case of G7U A13U A51U A117G, the self-cleavage is reported as 1.29.
In the case of A5G A63G G73A, the self-cleavage is reported as 0.2.
Variant A5G U39C G50A has a self-cleavage of 0.99.
A5G A33G A36G U70C U127A gave a self-cleavage of 0.84.
A5U A24G A91G A96G showed a self-cleavage of 1.51.
Work on A5G U49A U100C U108C yielded a self-cleavage of 0.02.
For A5U A69G G73A, the self-cleavage was 0.18.
A5G C32U A64U A67C gave a self-cleavage of 0.72.
For A5U A11U A23G C77U, the self-cleavage was 1.14.
A5G U57C A82G U102C gave a self-cleavage of 0.91.
In the case of A5G A47G A60G U72G, the self-cleavage is reported as 0.08.
In the case of A5U A24G G53A, the self-cleavage is reported as 0.71.

From the RNAGym collection of RNA variant scans (doi:10.7554/elife.90254)
